Among all 270,000 compounds or so, about 620 (0.23%) were called active. The inconclusive results got no clear call from the source; some entries with a clear call stand among them for comparison. The call rests on the fitted dose curve; in most records, active means well fitted inhibition curve with a large enough effect in the polarisation, with a control signal flat (not every such curve was filed as active); inconclusive means small, poorly fitted or top-dose-only effect, or effect the other way, or a change in a side signal; inactive means no such curve, though single readings can be large or run the other way; the % refers to the polarisation. A potency beside an inconclusive call is a rough fit, not a confirmed value. A note “side channel” means that the fit belongs to a control or component signal, not to the main read-out.
Each compound was assayed against Menin (Homo sapiens) (UniProt O00255) (assay: qHTS Assay for Inhibitors Targeting the Menin-MLL Interaction in MLL Related Leukemias: Competition With Texas Red Labeled MLL-derived Mutant Peptide). Details: fluorescence polarization; FP activity change, negative = inhibition: at 61.6 µM (top of the series).
Sequence of UniProt O00255 (O00255 whole entry, looked up): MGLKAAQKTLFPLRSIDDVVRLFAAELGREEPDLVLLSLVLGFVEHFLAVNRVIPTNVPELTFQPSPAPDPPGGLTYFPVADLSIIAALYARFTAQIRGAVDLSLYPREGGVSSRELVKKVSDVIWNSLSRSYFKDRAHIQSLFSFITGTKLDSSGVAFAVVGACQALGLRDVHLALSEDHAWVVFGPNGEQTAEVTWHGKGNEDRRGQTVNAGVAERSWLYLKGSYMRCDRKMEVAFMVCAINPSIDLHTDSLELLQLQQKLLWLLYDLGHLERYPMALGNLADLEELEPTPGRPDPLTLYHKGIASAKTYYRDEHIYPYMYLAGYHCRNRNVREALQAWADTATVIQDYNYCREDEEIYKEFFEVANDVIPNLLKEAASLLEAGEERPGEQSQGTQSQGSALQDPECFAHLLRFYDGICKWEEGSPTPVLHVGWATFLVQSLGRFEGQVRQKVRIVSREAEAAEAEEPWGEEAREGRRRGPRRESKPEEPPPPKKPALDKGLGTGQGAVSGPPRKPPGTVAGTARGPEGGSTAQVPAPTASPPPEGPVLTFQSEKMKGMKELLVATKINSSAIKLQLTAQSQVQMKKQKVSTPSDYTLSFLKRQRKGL
Potency means the concentration at half of the fitted maximal effect; tags describe the fitted curve by direction and shape or compound fluorescence and quenching.
Wherever FP activity change, negative = inhibition is given: % of control where 0% means no effect.

Structure (SMILES)	Potency	FP activity change, negative = inhibition
CCOP(=O)(c1ccccc1)c1nc(-c2ccccc2C)oc1N1CCCCC1 (stereo unspecified)	inconclusive: 25.1 µM [fluorescent, side channel, partial curve]	–
O=c1cc(-c2ccc(O)c(-c3c(O)cc(O)c4c(=O)cc(-c5ccc(O)cc5)oc34)c2)oc2cc(O)cc(O)c12	inconclusive: 20 µM [quencher, side channel, partial curve]	–
COc1ccc(CCNC(=O)CSCc2ccc(Br)cc2)cc1OC	inactive	–
N#CC1=C(S)N=C(N)C(c2nc(-c3ccccc3)cs2)C12CCCCC2 (stereo unspecified)	inconclusive: 28.2 µM [quencher, side channel, single point]	–
CCOC(=O)c1cnc2ccc(OCC)cc2c1NCCCN1CCOCC1	inconclusive: 12.6 µM [inhibitor, partial curve]	–
O=C1C(=O)c2c(C(=O)c3ccccc3)coc2-c2ccccc21	inconclusive: 25.1 µM [quencher, side channel, single point]	–
Cc1ccc(C)c(NC(=S)NNc2ccc(F)cc2F)c1	inconclusive: 28.2 µM [quencher, side channel, single point]	–
O=C(Cn1nc(-c2cccs2)ccc1=O)Nc1ccc(Br)cc1	inconclusive: 14.1 µM [quencher, side channel, partial curve]	–
CC1=CC(C)(C)N2C(=O)C(=O)c3cc(OC(=O)c4ccco4)cc1c32	inactive	–
CC(C)Cc1ccc(-c2cc(=O)[nH][nH]2)cc1	inconclusive: 10 µM [quencher, side channel, partial curve]	–
CCOC(=O)N1CCN(C(=O)c2cc3c(-c4cccc(OC)c4)nn(C)c3s2)CC1	inconclusive: 15.8 µM [fluorescent, side channel, partial curve]	–
Nc1ccc(C(=O)N/N=C/c2cn(Cc3ccccc3F)c3ccccc23)cc1	inconclusive: 10 µM [quencher, partial curve]	–
COc1ccc(N2CCN(C(=O)c3ccc(CS(=O)Cc4ccc(Cl)cc4)o3)CC2)cc1 (stereo unspecified)	inconclusive: 20 µM [inhibitor, single point]	–
Cc1cc(C)cc(NCc2cc3c(cc2[N+](=O)[O-])OCO3)c1	inconclusive: 28.2 µM [quencher, side channel, partial curve]	–
Cc1c(NC(=O)Nc2cccs2)cccc1[N+](=O)[O-]	inconclusive: 28.2 µM [quencher, side channel, single point]	–
CC1CCCCC1NC(=O)Cn1c(=O)oc2cc(S(=O)(=O)N3CCCC3)ccc21 (stereo unspecified)	inconclusive: 39.8 µM [inhibitor, single point]	–
O=C(CSc1ncnc2c1nnn2Cc1ccccc1)NC1CCCCC1	inconclusive: 11.2 µM [fluorescent, side channel, partial curve, poor fit]	–
CC(C)c1ccc(O)c(NC(=S)NC(=O)CCc2ccccc2)c1	inconclusive: 39.8 µM [inhibitor, single point]	–
O=C1NC(Nc2nc3ccccc3s2)(C(F)(F)F)C(=O)N1C1CCCCC1 (stereo unspecified)	inconclusive: 15.8 µM [quencher, side channel, partial curve]	–

Structure (SMILES)	Potency	FP activity change, negative = inhibition
Cc1ccc(-n2c3c(cc(C(=O)NCCCN4CCOCC4)c2=O)C(=O)CC(C)(C)C3)cc1	inconclusive: 10 µM [inhibitor, partial curve]	–
COc1ccc(-c2nc(CS(=O)CC(=O)NC3CCCC(C)C3C)c(C)o2)cc1OC (stereo unspecified)	inconclusive: 7.08 µM [inhibitor, partial curve]	–
CCOC(=O)c1[nH]c2ccccc2c1NC(=O)CCN1CCN(C(=O)OCC)CC1	inactive	–
Oc1ccc2ccccc2c1-c1sc(Nc2ccccc2)n[n+]1-c1ccc(F)cc1	active: 15.8 µM	–
O=C(N1CCN=C1SCc1cccnc1)C12CC3CC(CC(C3)C1)C2	inconclusive: 8.91 µM [inhibitor, partial curve]	–
Cc1ccc(NC(=O)C2Cc3ccccc3O/C2=N\O)cc1C (stereo unspecified)	inconclusive: 39.8 µM [fluorescent, side channel, single point]	–
C=CCN1CCN(C(c2ccccc2OC)c2nnnn2C(C)(C)C)CC1 (stereo unspecified)	inconclusive: 39.8 µM [inhibitor, single point]	–
Cc1ccc2c(c1)N(C(=O)CCC(=O)NC1CCCCCC1)CCO2	inconclusive: 8.91 µM [inhibitor, full curve, poor fit]	–
Clc1ccc(/C=C/c2nc3ccccc3[nH]2)cc1	inconclusive: 17.8 µM [quencher, side channel, partial curve]	–
CC(=O)c1sc(NC(=O)C2(F)C(F)(F)C(F)(F)C(F)(F)C(F)(F)C2(F)F)nc1C	inconclusive: 14.1 µM [quencher, side channel, partial curve]	–
c1ccc(-c2nc3ccccc3nc2N2CCOCC2)cc1	inactive	–
CCCN1C(=O)CN(C2CCCCCC2)C(=O)C1c1ccc(C)cc1 (stereo unspecified)	inconclusive: 3.16 µM [inhibitor, full curve, poor fit]	–
Cc1[nH]nc(-c2ccc(O)c(C)c2O)c1Oc1ccccc1	inconclusive: 39.8 µM [quencher, side channel, single point]	–
C=CCOc1c(Br)cc(/C=N/Nc2ccc(C(=O)O)cc2)cc1OCC	inconclusive: 11.2 µM [quencher, side channel, partial curve]	–
O=C(Nc1ccn(Cc2ccccc2)n1)c1n[nH]c([N+](=O)[O-])c1Cl	inconclusive: 25.1 µM [quencher, side channel, single point]	–
Cc1nc2cc(-c3ccsc3-n3c(C)ccc3C)[nH]n2c(=O)c1Cl	inconclusive: 39.8 µM [quencher, single point]	–
COc1cccc(NC(=O)c2ccc(NC(=O)C3CC(=O)OC34CCCCC4)cc2)c1 (stereo unspecified)	inconclusive: 10 µM [quencher, side channel, partial curve]	–
CCOc1ccccc1/C=c1\sc2ncnn2c1=O	inconclusive: 11.2 µM [inhibitor, partial curve]	–
O=C(CCCCCBr)N1CCC(CC2CC(c3cccc(Br)c3)=NO2)(C(=O)NCC2CCCCC2)CC1 (stereo unspecified)	inconclusive: 11.2 µM [inhibitor, partial curve, poor fit]	–

Structure (SMILES)	Potency	FP activity change, negative = inhibition
CC(C)CC[n+]1ccn(-c2nc3ccccc3nc2[N-]S(=O)(=O)c2ccccc2)c1	inconclusive: 1.58 µM [fluorescent, side channel, full curve, poor fit]	–
CCCCn1c(SCC(=O)Nc2cc(C(F)(F)F)cc(C(F)(F)F)c2)nnc1C(CC)N(C)C (stereo unspecified)	inconclusive: 10 µM [fluorescent, side channel, partial curve]	–
O=C(NNc1cc(Br)c(O)c(Br)c1)c1ccccc1	inconclusive: 20 µM [quencher, side channel, partial curve]	–
CN1CCc2c1nc1ccccc1c2N (tested in a mixture with another compound)	inconclusive: 0.631 µM [inhibitor, full curve, poor fit]	–
COc1ccc(NS(=O)(=O)c2cc(NC(=O)c3cc(=O)c4ccccc4o3)ccc2OC)cc1	inconclusive: 3.16 µM [quencher, side channel, single point]	–
O=C(Nc1ccc(S(=O)(=O)Nc2ccccn2)cc1)c1cccc([N+](=O)[O-])c1	inconclusive: 35.5 µM [quencher, side channel, single point]	–
O=C(NCCc1c[nH]c2ccccc12)c1cccnc1	inconclusive: 22.4 µM [inhibitor, partial curve]	–
O=C(NCCc1cccc(Cl)c1)c1cccnc1	inconclusive: 20 µM [inhibitor, partial curve]	–
O=C(Nc1cccc(Cl)c1)c1ccc(F)c(S(=O)(=O)NCc2cccs2)c1	inconclusive: 12.6 µM [quencher, side channel, partial curve]	–
Cc1ccccc1C(=O)NC1CCN(C(=O)Nc2ccccc2Cl)CC1	inconclusive: 28.2 µM [inhibitor, single point]	–
Cc1ccc(NC(=O)CN(C)S(=O)(=O)c2cccs2)cc1F	inconclusive: 28.2 µM [quencher, side channel, single point]	–
Cc1cccc(NC(=S)N(Cc2ccc(Cl)cc2)Cc2ccc(C(=O)O)cc2)c1	inconclusive: 11.2 µM [quencher, side channel, partial curve]	–
Cc1ccc(C(=O)CN2CCN(c3ccccn3)CC2)c(C)c1	inconclusive: 8.91 µM [fluorescent, side channel, partial curve]	–
Cc1[nH]n(-c2cccc(Cl)c2)c(=O)c1-c1ccccc1	inconclusive: 28.2 µM [quencher, side channel, single point]	–
CC(C)=CCC/C(C)=C/CO/N=C1/C[C@@H](O)[C@@H](O)[C@@H]2[C@@H]3C(=O)N(C4CCCCC4)C(=O)[C@H]3CC[C@@H]12	–	inactive: -12.7% [at 11.7 µM]
CCCCn1c(SCN2C(=O)c3ccccc3C2=O)nc2cc(S(N)(=O)=O)ccc21	inactive	–
CC1CCN(CCCOc2ccc(Cl)cc2Br)CC1	inconclusive: 10 µM [inhibitor, partial curve]	–
COc1ccccc1CN1C[C@@H]2C[C@@H](C3=Cc4cccc(OC)c4OC3)N3CCC[C@@]23C1=O	inconclusive: 3.16 µM [fluorescent, side channel, full curve]	–

Reference: PubChem BioAssay AID1768 (National Center for Advancing Translational Sciences (NCATS), 2009)
